Molecules are shown by their SMILES. In all, about 150,000 compounds went through this assay and about 540 (0.36%) showed an effect of 50% or more. The list shows a part of the results.

This assay relates to Plasmodium falciparum. In words: Primary screen in NF54 nanoGlo assay, in single point, at 2uM, 72h; a lower Z score goes with more inhibition. In kind it is functional, Erythrocyte. The settings on record: timepoint 72 hour.
The term % Inhibition denotes the change of the read-out against control, counted positive when it falls. Turning to `Cc1ccccc1N1C(=O)CN(C(=O)C2Cc3ccccc3O2)CC1C` (configuration not stated), the “% Inhibition” value is -3% and the Z score is on record as 0.6.
On to `CC(C)c1nc(CN2C[C@@H]3CC[C@H](C2)C(=O)N3)co1`, for which the “% Inhibition” value is recorded as 11% and the Z score is on record as -1.33.
In the case of `CC(CNC1CC(C)(C)OC1(C)C)CS(C)(=O)=O` (configuration not stated), the “% Inhibition” value is -4% and the Z score worked out at 0.55.
With `CC(C)CC1(C(=O)N[C@@H](C)CC(=O)O)CCC1`, the “% Inhibition” value was -8% and the Z score was 0.83.
With `CCC(=O)Nc1ccc(CC)cc1-c1nc2ccccc2n(CC(=O)c2ccc(F)cc2)c1=O`, the “% Inhibition” value is recorded as -8% and the Z score is 1.61.
With `Cc1ccc(N(C)Cc2nncs2)c(F)c1`, the “% Inhibition” value is reported as -4% and the Z score stood at 0.34.
On the same counts, the results for `CCC(=O)N1CCCc2cc(S(=O)(=O)N3CCC(C(=O)Nc4ccc(F)c(F)c4)CC3)ccc21` are 6% and -0.71.
Turning to `CC(C)N(C)Cc1nnnn1CC(=O)NCCC1=CC[C@H]2C[C@@H]1C2(C)C`, the “% Inhibition” value is -4% and the Z score was found to be 0.54.
Take `c1ccc(COc2ccccc2OCCN2CCOCC2)cc1`: the “% Inhibition” value is on record as 2% and the Z score is given as -0.35.
For the compound `O=C(CN1CCC(c2nnc3n2CCC3)CC1)N1CCCCC1`, the “% Inhibition” value is -13% and the Z score came to 1.61.
For the compound `CCN1C(=O)COc2ccc(NC(=O)N[C@@H](C)c3ccc(C)nc3)cc21`, the “% Inhibition” value is -1% and the Z score was found to be 0.21.
On the same counts, the results for `CN(C)[C@@H]1C[C@@H](CO)N(C(=O)Nc2ccc(OC(F)(F)F)cc2)C1` are -1% and 0.26.
Consider `COCCNc1ccccc1NC(=O)C1CCC(F)(F)CC1`, for which the “% Inhibition” value is listed as -8% and the Z score was determined as 1.53.
On the same counts, the results for `CCc1c(C(=O)N2CCC3(CN(C)C3)C2)ccn1C` are -9% and 1.69.
On the same counts, the results for `CN1N=C(C(=O)N2CC[C@@]3(CCCN(CCc4ccccc4)C3)C2)CCC1=O` are -6% and 0.82.
On to `CC(C)NC(=O)CNC(=O)Cc1ccccc1`, for which the “% Inhibition” value is on record as -44% and the Z score is on record as 5.13.
Take `CCn1cc(CN(C)C(=O)Nc2cc(C)nn2-c2ccc(OC)cc2)cn1`: the “% Inhibition” value is -7% and the Z score amounted to 0.99.
For `CN(C)c1cc(C(=O)OCc2nc3cc(C(F)(F)F)ccc3o2)ccn1`, in that order: 32% and -3.57.
On the same counts, the results for `CC[C@](C)(O)CN(Cc1ccccc1)S(=O)(=O)C1CC1` are 7% and -1.08.
For `O=C(Cn1cc(F)ccc1=O)N1CCc2ccccc21`, the “% Inhibition” value was -8% and the Z score came out at 1.07.
Consider `COc1ccc(-c2nnc(C)o2)cc1NC(=O)[C@H]1CCOC1`, for which the “% Inhibition” value was -4% and the Z score is reported as 0.54.
Take `Cc1c(C[C@@H]2C(=O)N(C)c3ccccc32)oc2ccc(F)cc12`: the “% Inhibition” value was -13% and the Z score is given as 1.16.
In the case of `CC1CCCC(C)N1C(=O)N(C)CC(C)(CO)CO` (configuration not stated), the “% Inhibition” value is on record as -3% and the Z score is given as 0.36.
In the case of `O=C1N[C@@](c2ccccc2)(C(F)(F)F)C(=O)N1CC=Cc1ccccc1`, the “% Inhibition” value is recorded as -6% and the Z score turned out to be 0.86.
Consider `COCCN1C[C@@H](Cc2ccc(N3CCOCC3)cc2)CC1=O`, for which the “% Inhibition” value is listed as -1% and the Z score was 0.12.
Turning to `Cc1ccc2c(c1F)N(C(=O)c1ccc(=O)n(C)n1)CCC2`, the “% Inhibition” value is given as -9% and the Z score was determined as 1.34.
As for `CC(C)NC(=O)N1CCN(c2ccc(Cl)c(NC(=O)CN(C(=O)c3ccccc3Cl)C(C)C)c2)CC1`, the “% Inhibition” value is given as -13% and the Z score amounted to 1.19.
As for `COCCOc1cc(=O)n2c(c1C(=O)NCc1ccccc1)CCOCC2`, the “% Inhibition” value is -15% and the Z score was found to be 1.47.
Regarding `COc1c(C(=O)OCc2nc(C)cs2)c(C)nn1C`, the “% Inhibition” value was -10% and the Z score was found to be 1.55.
Turning to `Cc1cc(O)c([C@]2(C(F)(F)F)NCCNC2=O)cc1C`, the “% Inhibition” value was -8% and the Z score is 1.03.
For the compound `O=C(NCc1cc(-c2cccs2)on1)C1CCCCC1`, the “% Inhibition” value is listed as -5% and the Z score is reported as 0.66.
Regarding `COc1cccc(C2CN(C(=O)NC(C)(C)C)CC2C(=O)N(C)Cc2ccccc2)c1` (configuration not stated), the “% Inhibition” value is -18% and the Z score is given as 2.18.
`CCc1ncnc(NCC2(n3cccn3)CC2)c1F`: the “% Inhibition” value was found to be 2% and the Z score is listed as -0.35.
Take `Cc1nnc(CN(C)CCc2nc3ccccc3[nH]2)s1`: the “% Inhibition” value was 0% and the Z score was -0.03.
On to `Nc1cc(-c2cccc(OCc3ccccc3)c2)n[nH]1`, for which the “% Inhibition” value is -25% and the Z score is recorded as 2.98.
In the case of `CN(Cc1ccccc1)c1c(Cl)cnc(C(=O)O)c1Cl`, the “% Inhibition” value is on record as 9% and the Z score was -1.06.
`FC(F)Oc1ccc2c(c1)CCC[C@@H]2NC1CCOCC1`: the “% Inhibition” value was -8% and the Z score is given as 1.01.
With `COc1ccc(CCN2C(=O)CNC23CCN(C(=O)C2CCC2)CC3)cc1OC`, the “% Inhibition” value was found to be 3% and the Z score was -0.49.
Take `CCOC(=O)c1cc(-c2ccccc2)n(-c2cccc(C(=O)NCCc3ccc(C)cc3)c2)c1C`: the “% Inhibition” value was determined as 10% and the Z score is given as -1.14.
In the case of `Cc1cc(OCCON2C(=O)CCC2=O)c(C)cc1Cl`, the “% Inhibition” value is listed as -13% and the Z score stood at 1.76.
For `Cn1nccc1CCNC(=O)Nc1ccc(F)cn1`, in that order: -11% and 1.82.
For `CCN(CC)c1onc(-c2ccccc2)c1CN(Cc1ccccc1)C(=O)c1ccccc1C`, the “% Inhibition” value is listed as -24% and the Z score came out at 2.15.
For `CCC(C)(C)NS(=O)(=O)c1ccc(-c2cc(C(F)(F)F)on2)o1`, the “% Inhibition” value is recorded as -18% and the Z score worked out at 3.06.
On to `Cc1c(CNC2CCCC2)c(C(=O)O)c(C)n1Cc1ccc(F)cc1Cl`, for which the “% Inhibition” value is -12% and the Z score stood at 2.18.
Take `Cc1cc(=O)[nH]c(NC[C@]23CC[C@H]2CCCN3C(=O)OC(C)(C)C)n1`: the “% Inhibition” value is given as 21% and the Z score is recorded as -2.71.
For the compound `CCC(NC(=O)C1C2CCCCC21)c1cnn(CC)c1` (configuration not stated), the “% Inhibition” value is -6% and the Z score is reported as 0.5.
For `CCOc1cc(CN2CCC[C@H]2c2c(C)noc2CC)ccc1O`, in that order: -12% and 1.61.
As for `O=C(O)[C@H]1CN(C(=O)C2CCCCC2)C[C@@H]1C1CC1`, the “% Inhibition” value is recorded as -18% and the Z score was 3.1.
On to `Cc1n[nH]c(C)c1CNCC1(N2CCOCC2)CCCCC1`, for which the “% Inhibition” value is given as -7% and the Z score worked out at 1.47.
As for `O[C@@H](Cc1ccc(C(F)(F)F)cc1)Cn1cnnc1`, the “% Inhibition” value was found to be 5% and the Z score is -0.93.
On to `COc1ccc2c(c1)CC[C@H](C(=O)Nc1nnn(C)c1C(F)F)C2`, for which the “% Inhibition” value is -3% and the Z score came out at 0.66.
As for `CCC(C)C(C)N(C(=O)c1cncn1C)C1CC1` (configuration not stated), the “% Inhibition” value is on record as -3% and the Z score is 0.31.
For `Cc1cc(F)cc(S(=O)(=O)N2CCN3CCOC[C@]3(CO)C2)c1`, in that order: -6% and 1.11.
Take `CCOc1ccc(S(=O)(=O)N2CCC[C@H](C(=O)NCCN3CCOCC3)C2)cc1Cl`: the “% Inhibition” value is -11% and the Z score amounted to 1.31.
Consider `COCc1ccc(C(=O)N[C@@H](C)c2cnn(-c3ccccc3C)c2C)o1`, for which the “% Inhibition” value was -15% and the Z score came out at 1.28.
With `Cc1cc(C)nc(N[C@H]2C[C@@](C)(O)C2)n1`, the “% Inhibition” value was 12% and the Z score is -1.5.
For `O=C(NCc1cccnc1OCC(F)F)c1ccn2ccnc2c1`, in that order: 1% and -0.26.
Consider `O=C(NC1CC1)C1CCCN(C(=O)c2cccc(C(=O)N3CCCC(C(=O)NC4CC4)C3)n2)C1` (configuration not stated), for which the “% Inhibition” value is given as -2% and the Z score stood at 0.3.
For `O=C1NC[C@@H](O)CC12CCN(CCCc1ccc(Cl)cc1)CC2`, the “% Inhibition” value is listed as -18% and the Z score is given as 2.26.
With `Cn1cc(C(NC(=O)CCc2c[nH]c3ccccc23)[C@H]2C[C@H](O)C2)cn1` (some centres not stated), the “% Inhibition” value turned out to be 5% and the Z score is -0.74.
For `CC(C)(C(=O)N1CC(C(F)F)C1)C1CCC1`, the “% Inhibition” value was -11% and the Z score was 1.14.
On to `O=C(Nc1cnc2c(F)c(F)ccc2c1)c1c(C(F)F)nc2n1CCCC2`, for which the “% Inhibition” value is listed as -13% and the Z score is given as 2.38.
On to `O=C1N(Cc2ccccc2)C(=O)C2(CCNCC2)N1CCc1ccccc1`, for which the “% Inhibition” value was determined as 10% and the Z score is -1.29.
For `CO[C@H]1CCCN(C(=O)NC2CCN(Cc3ccccc3)CC2)C1`, the “% Inhibition” value is recorded as -7% and the Z score is given as 1.12.
With `Cc1cc(Cn2c(C(F)(F)F)ccc(C(N)=O)c2=O)no1`, the “% Inhibition” value stood at 30% and the Z score was -3.36.
On to `O=S(=O)(Nc1nc2ccccc2nc1Nc1ccc2ccccc2c1)c1cccs1`, for which the “% Inhibition” value is 24% and the Z score is on record as -2.72.
As for `O=C(NCc1ccco1)[C@@]12CCCC[C@H]1N(C1CC1)S(=O)(=O)CC2`, the “% Inhibition” value was -16% and the Z score is listed as 1.9.
For the compound `Cc1csc(CCNC(=O)CC2(N3Cc4ccccc4C3=O)CCCCC2)n1`, the “% Inhibition” value is on record as -18% and the Z score stood at 2.6.
As for `CCCCOC(=O)N1CCC[C@@]2(CCC(=O)N(Cc3ccncc3)C2)C1`, the “% Inhibition” value amounted to 7% and the Z score is -0.92.
Turning to `CCc1ccc(Cn2nc(C[C@@H](C)CC)nc2C2(CO)CC2)cc1`, the “% Inhibition” value was -7% and the Z score came out at 1.29.
On to `CCN(Cc1cnn(C)c1)c1ccc(C(=O)OC)nn1`, for which the “% Inhibition” value is on record as 6% and the Z score is recorded as -0.72.
Turning to `Cc1cc(CNC(=O)c2ccc3c(c2)OCCO3)nn1C`, the “% Inhibition” value was -6% and the Z score is 0.96.
As to `CN1CCc2[nH]c3ccc(S(=O)(=O)N(C)C)cc3c2C1`, the “% Inhibition” value is -3% and the Z score is given as 0.41.
As to `CCc1ccccc1NC(=O)CN1CCN(c2nnc(C)s2)CC1`, the “% Inhibition” value is listed as -3% and the Z score turned out to be 0.5.
In the case of `Cc1cccc(Cn2c(C)c(C)c(C)c2C(=O)Nc2cccc(F)c2)c1`, the “% Inhibition” value is -5% and the Z score came to 0.98.
Regarding `CCc1ccsc1C(=O)N1CC[C@@H](O)C1`, the “% Inhibition” value is given as -14% and the Z score stood at 2.32.
Consider `CC(CNC(=O)N(C)CCc1cccs1)N1CCOCC1C` (configuration not stated), for which the “% Inhibition” value came to 5% and the Z score is recorded as -0.94.
Turning to `CC1=C(Cc2cn(CCN3CCOC3=O)nn2)C(C)(C)CCC1`, the “% Inhibition” value is recorded as 11% and the Z score is -1.46.
On to `O=C(NC1CC1)N1CCN(Cc2cn3cc(Cl)ccc3n2)CC1`, for which the “% Inhibition” value turned out to be 0% and the Z score was found to be 0.08.
As for `O=C(NC1CCCCC1)c1cccc(Oc2cc(-c3ccc(F)cc3)ncn2)c1`, the “% Inhibition” value is -15% and the Z score is 1.91.
Consider `O=C(Nc1ccc(N2CCCCCC2)cc1C(=O)O)c1ccc(F)cc1`, for which the “% Inhibition” value is on record as 0% and the Z score came out at 0.05.
For `CCOc1cc(C#N)c(Br)cc1O`, in that order: -11% and 1.31.
In the case of `COCCOc1ccnc(-c2noc([C@@H]3CCCN3Cc3ccc(C(F)(F)F)cc3)n2)c1`, the “% Inhibition” value came to 32% and the Z score is listed as -3.6.
As to `O=C(Nc1nc(-c2c(F)cccc2F)cs1)c1ccc2c(c1)COC2`, the “% Inhibition” value is on record as 0% and the Z score came to 0.01.
`N#Cc1nccnc1N1CCc2ccccc21`: the “% Inhibition” value was -10% and the Z score was determined as 1.47.
On to `Cc1ccc(-c2cc3n(n2)CCC(=O)N3CC(=O)N2CCN(c3ccccn3)CC2)cc1`, for which the “% Inhibition” value is -4% and the Z score was found to be 0.36.
